Results taken from PubChem BioAssay (Tox21).
Values joined by “and” are separate entries in the source; they are usually repeats but may differ in a detail not shown here. Equal entries are not always repeated. This list was built around the results that the source calls inconclusive (neither active nor inactive); the mix of calls is not that of the screen. For part of these data: Potencies beside an inconclusive call are fits to weak or partial responses and may not hold up. The source holds several records for some structures; these can differ, active in one and inactive in another. Active and inactive are the calls of the source. Unless noted, calls come from the whole dose curve.

How the values were obtained:
[1] = qHTS assay to identify small molecule antagonists of the sonic hedgehog signaling (Shh) pathway (AID 1259369); settings: NIH/3T3 Gli1-Luc reporter, Shh antagonist, luminescence 24 h; series mostly up to 92.4 µM; note: nearly all actives have a fitted effect of over 45% in size; note: potency is the fitted concentration of half-maximal effect
In short: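 Screening used 3T3Gli1-Luc cells at 2,000 per well, compounds delivered in DMSO, and conditioned medium as agonist stimulus; plates incubated 24hr at 37 C and 5% CO2 before a 30min luciferase step.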

[2] = qHTS assay to identify small molecule agonists of the estrogen receptor beta (ER-beta) signaling pathway - cell viability counter screen (AID 1259380; active = well fitted curve in the direction sought with a large enough effect in the repeat runs; inconclusive = weak or mixed curves; inactive = no such curve, though single readings can be large; an effect the other way counts as inactive or inconclusive; note: nearly all actives have a fitted effect of over 30% in size; note: potency is the fitted concentration of half-maximal effect); settings: ER-beta-bla HEK293T viability, CellTiter-Glo luminescence, 16 h; series mostly up to 92.4 µM
In short: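 Viability of ER-beta-UAS-bla HEK293T cells was determined by CellTiter-Glo luminescence following 16 hr treatment with test compounds at 37C.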

[3] = target: Progesterone receptor (Homo sapiens) (UniProt P06401); experiment: qHTS assay to identify small molecule antagonists of the progesterone receptor (PR) signaling pathway (AID 1346795; active = well fitted inhibition curve with a large enough effect in the signal ratio in the repeat runs, not every such curve was filed as active; inconclusive = weak or mixed curves; the % refers to the signal ratio; note: potency is the fitted concentration of half-maximal effect); settings: PR-UAS-bla HEK293T, beta-lactamase FRET ratio, 16 h; activity change, negative = inhibition: at 92.4 µM (top of the series) unless noted
In short: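 Beta-lactamase reporter, HEK293T PR-UAS-bla line; 2% charcoal-stripped FBS; 6 hr pre-incubation, 37C/5% CO2. Compound + R5020 1 nM final, 16 hr. LiveBLAzer B/G FRET substrate, 2 hr RT; fluorescence intensity read.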

[4] = qHTS assay to identify small molecule antagonists of the estrogen receptor beta (ER-beta) signaling pathway - cell viability counter screen (AID 1259382; active = well fitted curve in the direction sought with a large enough effect in the repeat runs; inconclusive = weak or mixed curves; inactive = no such curve, though single readings can be large; an effect the other way counts as inactive or inconclusive; note: nearly all actives have a fitted effect of over 55% in size; note: potency is the fitted concentration of half-maximal effect); settings: ER-beta-UAS-bla HEK293T viability, CellTiter-Glo luminescence, 16 h; series mostly up to 92.4 µM
In short: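 Tox21 10K library tested in qHTS format on ER-beta-bla HEK293T cells stimulated with 1nM E2; 16 hr treatment at 37C. Same-well CellTiter-Glo luminescence served as the cell viability measure.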

[5] = qHTS assay to identify small molecule antagonists of the progesterone receptor (PR) signaling pathway - cell viability counter screen (AID 1346798; active = well fitted curve in the direction sought with a large enough effect in the repeat runs; inconclusive = weak or mixed curves; inactive = no such curve, though single readings can be large; an effect the other way counts as inactive or inconclusive; note: nearly all actives have a fitted effect of over 50% in size; note: potency is the fitted concentration of half-maximal effect); settings: PR-UAS-bla HEK293T viability, CellTiter-Glo luminescence, 16 h; series mostly up to 92.4 µM
In short: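 Luminescence readout (CellTiter-Glo, 30 min, RT) of viability in PR-UAS-bla HEK293T cells exposed to compound and R5020 agonist for 16 hr at 37C, 5% CO2; run in the same wells as the beta-lactamase reporter read.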

[6] = qHTS assay to identify small molecule agonists of the progesterone receptor (PR) signaling pathway - cell viability counter screen (AID 1346799); settings: PR-UAS-bla HEK293T viability, CellTiter-Glo luminescence, 16 h; series mostly up to 92.4 µM; note: nearly all actives have a fitted effect of over 45% in size; note: potency is the fitted concentration of half-maximal effect
In short: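 HEK293T PR-UAS-bla, 3,000 cells/well, 2% charcoal-stripped FBS; 6 h settle, compound 16 h at 37C/5% CO2; LiveBLAzer 2 h RT, then CellTiter-Glo 30 min RT, luminescence read.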

[7] = target: Progesterone receptor (Homo sapiens) (UniProt P06401); experiment: qHTS assay to identify small molecule agonists of the progesterone receptor (PR) signaling pathway (AID 1346784); settings: PR-UAS-bla HEK293T, beta-lactamase FRET ratio, 16 h; note: nearly all actives have a fitted effect of over 30% in size; note: potency is the fitted concentration of half-maximal effect
In short: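 HEK 293T PR-UAS-bla reporter cells, 2% charcoal-stripped FBS; 6 hr settle at 37C/5% CO2, compound (DMSO) 16 hr, LiveBLAzer B/G FRET substrate 2 hr RT, fluorescence intensity read.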

[8] = qHTS assay to identify small molecule agonists of the TGF-beta/Smad signaling pathway (AID 1346859; active = well fitted activation curve with a large enough effect in the signal ratio in the repeat runs, not every such curve was filed as active; inconclusive = weak or mixed curves; the % refers to the signal ratio); settings: SBE-bla HEK293T, TGF-beta/Smad beta-lactamase reporter, 5 h; activation: at 76.8 µM (top of the series)
In short: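 Read-out: fluorescence at 460 and 530 nm (405 nm excitation) after a 2 hr room-temperature incubation with beta-lactamase FRET substrate. SBE-bla HEK 293T cells had been treated with test compounds for 5 hr at 37 C.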

[9] = activation: at 92.4 µM (top of the series) unless noted
% is set by controls: 0 for no effect and ±100 for the full control effect; tags give direction and shape of the fitted curve or compound fluorescence and quenching.

UniProt P06401, sequence (P06401 whole entry, looked up): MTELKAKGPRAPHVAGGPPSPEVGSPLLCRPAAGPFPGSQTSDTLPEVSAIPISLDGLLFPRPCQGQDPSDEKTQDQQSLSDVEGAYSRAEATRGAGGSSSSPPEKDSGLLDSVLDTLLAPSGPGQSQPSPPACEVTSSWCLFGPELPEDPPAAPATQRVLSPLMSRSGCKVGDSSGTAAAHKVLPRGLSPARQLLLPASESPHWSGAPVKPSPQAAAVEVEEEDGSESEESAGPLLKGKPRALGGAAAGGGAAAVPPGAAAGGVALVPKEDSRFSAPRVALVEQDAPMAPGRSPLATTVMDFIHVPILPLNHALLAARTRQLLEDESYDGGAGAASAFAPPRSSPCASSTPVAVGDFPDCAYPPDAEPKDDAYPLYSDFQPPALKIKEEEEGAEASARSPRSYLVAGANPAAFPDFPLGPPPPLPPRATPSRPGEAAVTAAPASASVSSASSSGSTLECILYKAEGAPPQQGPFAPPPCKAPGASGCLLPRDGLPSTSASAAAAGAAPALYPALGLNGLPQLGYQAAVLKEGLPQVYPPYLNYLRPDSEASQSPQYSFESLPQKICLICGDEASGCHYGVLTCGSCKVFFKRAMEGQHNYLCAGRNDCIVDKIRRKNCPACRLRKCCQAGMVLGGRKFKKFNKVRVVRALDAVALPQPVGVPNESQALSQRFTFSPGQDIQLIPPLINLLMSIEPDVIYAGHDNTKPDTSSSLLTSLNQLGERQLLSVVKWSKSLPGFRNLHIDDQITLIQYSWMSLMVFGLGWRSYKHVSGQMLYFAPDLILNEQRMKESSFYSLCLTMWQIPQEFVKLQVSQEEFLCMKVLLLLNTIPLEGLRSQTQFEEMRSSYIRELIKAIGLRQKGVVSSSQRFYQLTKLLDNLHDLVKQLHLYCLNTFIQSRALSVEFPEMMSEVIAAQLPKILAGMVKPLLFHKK

## COc1cccc(N(C)C(=S)Oc2ccc3c(c2)CCCC3)n1
[1]
  Potency: inconclusive: 26.6 µM [inhibitor, partial curve, poor fit]
[2]
  Potency: inconclusive: 15 µM [cytotoxic, partial curve]
[3]
  Potency: active: 18.8 µM

## CCCCCOC(C)=O
[1]
  Potency: active: 27.3 µM
[4]
  Potency: inactive
[3]
  Potency: inconclusive: 68.6 µM [falling, single point]
  activity change, negative = inhibition: inconclusive: -17.4%
[5]
  Potency: inconclusive: 61.1 µM [cytotoxic, single point]
[6]
  Potency: inconclusive: 77 µM [cytotoxic, single point]

## CCCCCCc1ccc(-c2ccc(C#N)cc2)cc1
[1]
  Potency: inactive
[2]
  Potency: inconclusive: 75.6 µM [cytotoxic, single point]
[7]; [9]
  Potency: inconclusive: 30.1 µM [falling, partial curve]
[3]
  Potency: active: 21.3 µM
[5]
  Potency: inactive
[6]
  Potency: inconclusive: 37.9 µM [rising, partial curve]

## Cc1ccc(-c2ncc(Cl)cc2-c2ccc(S(C)(=O)=O)cc2)cn1
[1]
  Potency: inactive
[2]
  Potency: inactive
[7]; [9]
  Potency: inconclusive: 33.5 µM [rising, single point]
[6]
  Potency: inconclusive: 33.5 µM [cytotoxic, single point]

## Cc1ccc(C)c(OCCCC(C)(C)C(=O)O)c1
[1]
  Potency: inconclusive: 0.545 µM [inhibitor, single point]
[2]
  Potency: inconclusive: 69.1 µM [cytotoxic, partial curve, poor fit] and inconclusive: 34.4 µM [cytotoxic, partial curve, poor fit]
[7]; [9]
  activation: inconclusive: -0.0159%
[7]; at 42.5 µM (top of the series)
  activation: inactive: -0.13%
[7]; at 92.4 µM (top of the series)
  activation: inactive: 0.255%
[5]
  Potency: inactive

## NCCN
[1]
  Potency: inconclusive: 1.97 µM [inhibitor, single point]
[2]
  Potency: inactive
[3]
  Potency: inconclusive: 1.37 µM [rising, single point]
  activity change, negative = inhibition: inconclusive: -0.409%
[6]
  Potency: inconclusive: 6.86 µM [cytotoxic, single point]

## COCCC(=O)OC
[1]
  Potency: inconclusive: 68.6 µM [inhibitor, single point]
[4]
  Potency: inactive
[3]
  activity change, negative = inhibition: inconclusive: -46.6%
[5]
  Potency: inconclusive: 68.6 µM [cytotoxic]

## C[C@@H]1C[C@H]2[C@@H]3CCC4=CC(=O)C=C[C@]4(C)[C@@]3(F)[C@@H](O)C[C@]2(C)[C@H]1C(=O)CO
[1]
  Potency: inconclusive: 0.668 µM [inhibitor, partial curve, poor fit]
[2]
  Potency: inconclusive: 21.1 µM [cytotoxic, partial curve]
[7]; [9]
  Potency: inconclusive: 0.0266 µM [falling, full curve]
[5]
  Potency: inactive
[6]
  Potency: inconclusive: 0.0106 µM [rising, full curve, poor fit]

## CC(Cc1ccccc1)(NC(=O)CN)c1ccccc1 (stereo not given)
[1]
  Potency: inconclusive: 23.7 µM [inhibitor, partial curve, poor fit]
[2]
  Potency: inconclusive: 33.5 µM [cytotoxic, single point]
[3]
  Potency: inactive

## C=C(C)C(=O)OCCOCCOCCOC(=O)C(=C)C
[1]
  Potency: inconclusive: 30.7 µM [inhibitor] and inconclusive: 68.6 µM [inhibitor, single point]
[2]
  Potency: inconclusive: 54.5 µM [cytotoxic, partial curve]
[3]
  Potency: inconclusive: 68.6 µM [rising, single point]
[6]
  Potency: inconclusive: 1.09 µM [cytotoxic, single point]
[8]
  Potency: inactive

## COc1c(N2CCNC(C)C2)c(F)cc2c(=O)c(C(=O)O)cn(C3CC3)c12 (stereo not given)
[1]
  Potency: inconclusive: 9.44 µM [inhibitor, full curve, poor fit]
[2]
  Potency: inactive
[6]
  Potency: inactive

## Nc1nccs1
[1]
  Potency: inconclusive: 0.386 µM [inhibitor, single point]
[2]
  Potency: inactive
[3]
  Potency: inactive

## CN(C)CCN(Cc1ccc(Cl)cc1)c1ccccn1
[1]
  Potency: inconclusive: 10.6 µM [inhibitor, partial curve]
[4]
  Potency: inconclusive: 29.8 µM [cytotoxic, single point]
[3]
  Potency: inactive
[5]
  Potency: inconclusive: 2.98 µM [cytotoxic, single point]

## CN(C)CCCNCCCN
[1]
  Potency: inconclusive: 34.2 µM [inhibitor, partial curve]
[2]
  Potency: inconclusive: 68.3 µM [cytotoxic, single point]
[6]
  Potency: inactive
